{"source": "paper PMC9911399", "about": "“Two distinct binding modes provide the RNA-binding protein RbFox with extraordinary sequence specificity”", "binders": {"B1": {"name": "ACGUAGC (DNA:RNA)", "RNA": "GGGAGACCGGAAUUCAGAUUGUCCACGUAGCUUAAAUCCCGUCGUAGCCACCA", "DNA 1": "CAATCTGAATTCCGGTCTCCC", "DNA 2": "TGGTGGCTACGACGGGATT"}, "B2": {"name": "GCUUGUA (DNA:RNA)", "RNA": "B1 RNA with A25G, G27U, A29G, G30U, C31A", "DNA 1": "CAATCTGAATTCCGGTCTCCC", "DNA 2": "TGGTGGCTACGACGGGATT"}, "B3": {"name": "AAGAUCU (DNA:RNA)", "RNA": "B1 RNA with C26A, U28A, A29U, G30C, C31U", "DNA 1": "CAATCTGAATTCCGGTCTCCC", "DNA 2": "TGGTGGCTACGACGGGATT"}, "B4": {"name": "UUAUGCG (DNA:RNA)", "RNA": "B1 RNA with A25U, C26U, G27A, A29G, G30C, C31G", "DNA 1": "CAATCTGAATTCCGGTCTCCC", "DNA 2": "TGGTGGCTACGACGGGATT"}, "B5": {"name": "AUAAGGA (DNA:RNA)", "RNA": "B1 RNA with C26U, G27A, U28A, A29G, C31A", "DNA 1": "CAATCTGAATTCCGGTCTCCC", "DNA 2": "TGGTGGCTACGACGGGATT"}, "B6": {"name": "UUGGAAU (DNA:RNA)", "RNA": "B1 RNA with A25U, C26U, U28G, G30A, C31U", "DNA 1": "CAATCTGAATTCCGGTCTCCC", "DNA 2": "TGGTGGCTACGACGGGATT"}, "B7": {"name": "CAGCUCU (DNA:RNA)", "RNA": "B1 RNA with A25C, C26A, U28C, A29U, G30C, C31U", "DNA 1": "CAATCTGAATTCCGGTCTCCC", "DNA 2": "TGGTGGCTACGACGGGATT"}, "B8": {"name": "GACCGAU (DNA:RNA)", "RNA": "GGGAGACCGGAAUUCAGAUUGUCCGACCGAUUUAAAUCCCGUCGUAGCCACCA", "DNA 1": "CAATCTGAATTCCGGTCTCCC", "DNA 2": "TGGTGGCTACGACGGGATT"}, "B9": {"name": "GUUUGGC (DNA:RNA)", "RNA": "B1 RNA with A25G, C26U, G27U, A29G", "DNA 1": "CAATCTGAATTCCGGTCTCCC", "DNA 2": "TGGTGGCTACGACGGGATT"}, "B10": {"name": "UAGGGGG (DNA:RNA)", "RNA": "B1 RNA with A25U, C26A, U28G, A29G, C31G", "DNA 1": "CAATCTGAATTCCGGTCTCCC", "DNA 2": "TGGTGGCTACGACGGGATT"}, "B11": {"name": "UGUUGCA (DNA:RNA)", "RNA": "B1 RNA with A25U, C26G, G27U, A29G, G30C, C31A", "DNA 1": "CAATCTGAATTCCGGTCTCCC", "DNA 2": "TGGTGGCTACGACGGGATT"}, "B12": {"name": "GCAGACA (DNA:RNA)", "RNA": "B1 RNA with A25G, G27A, U28G, G30C, C31A", "DNA 1": "CAATCTGAATTCCGGTCTCCC", "DNA 2": "TGGTGGCTACGACGGGATT"}, "B13": {"name": "UCGAACA (DNA:RNA)", "RNA": "B1 RNA with A25U, U28A, G30C, C31A", "DNA 1": "CAATCTGAATTCCGGTCTCCC", "DNA 2": "TGGTGGCTACGACGGGATT"}, "B14": {"name": "UAGGUGU (DNA:RNA)", "RNA": "B1 RNA with A25U, C26A, U28G, A29U, C31U", "DNA 1": "CAATCTGAATTCCGGTCTCCC", "DNA 2": "TGGTGGCTACGACGGGATT"}, "B15": {"name": "UCGAUCG (DNA:RNA)", "RNA": "B1 RNA with A25U, U28A, A29U, G30C, C31G", "DNA 1": "CAATCTGAATTCCGGTCTCCC", "DNA 2": "TGGTGGCTACGACGGGATT"}, "B16": {"name": "AAGUAUG (DNA:RNA)", "RNA": "B1 RNA with C26A, G30U, C31G", "DNA 1": "CAATCTGAATTCCGGTCTCCC", "DNA 2": "TGGTGGCTACGACGGGATT"}, "B17": {"name": "GAAGCUG (DNA:RNA)", "RNA": "B8 RNA with C27A, C28G, G29C, A30U, U31G", "DNA 1": "CAATCTGAATTCCGGTCTCCC", "DNA 2": "TGGTGGCTACGACGGGATT"}, "B18": {"name": "CGUUCAU (DNA:RNA)", "RNA": "B8 RNA with G25C, A26G, C27U, C28U, G29C", "DNA 1": "CAATCTGAATTCCGGTCTCCC", "DNA 2": "TGGTGGCTACGACGGGATT"}, "B19": {"name": "GCUCACA (DNA:RNA)", "RNA": "B1 RNA with A25G, G27U, U28C, G30C, C31A", "DNA 1": "CAATCTGAATTCCGGTCTCCC", "DNA 2": "TGGTGGCTACGACGGGATT"}, "B20": {"name": "CUAGGUU (DNA:RNA)", "RNA": "B8 RNA with G25C, A26U, C27A, C28G, A30U", "DNA 1": "CAATCTGAATTCCGGTCTCCC", "DNA 2": "TGGTGGCTACGACGGGATT"}, "B21": {"name": "UUCUCGU (DNA:RNA)", "RNA": "B1 RNA with A25U, C26U, G27C, A29C, C31U", "DNA 1": "CAATCTGAATTCCGGTCTCCC", "DNA 2": "TGGTGGCTACGACGGGATT"}, "B22": {"name": "GAUUGAG (DNA:RNA)", "RNA": "B8 RNA with C27U, C28U, U31G", "DNA 1": "CAATCTGAATTCCGGTCTCCC", "DNA 2": "TGGTGGCTACGACGGGATT"}, "B23": {"name": "CUGGUAC (DNA:RNA)", "RNA": "B1 RNA with A25C, C26U, U28G, A29U, G30A", "DNA 1": "CAATCTGAATTCCGGTCTCCC", "DNA 2": "TGGTGGCTACGACGGGATT"}, "B24": {"name": "AGUCGGA (DNA:RNA)", "RNA": "B1 RNA with C26G, G27U, U28C, A29G, C31A", "DNA 1": "CAATCTGAATTCCGGTCTCCC", "DNA 2": "TGGTGGCTACGACGGGATT"}, "B25": {"name": "CUCAGGC (DNA:RNA)", "RNA": "B1 RNA with A25C, C26U, G27C, U28A, A29G", "DNA 1": "CAATCTGAATTCCGGTCTCCC", "DNA 2": "TGGTGGCTACGACGGGATT"}, "B26": {"name": "GACUCCU (DNA:RNA)", "RNA": "B8 RNA with C28U, G29C, A30C", "DNA 1": "CAATCTGAATTCCGGTCTCCC", "DNA 2": "TGGTGGCTACGACGGGATT"}, "B27": {"name": "AGCAGAA (DNA:RNA)", "RNA": "B8 RNA with G25A, A26G, C28A, U31A", "DNA 1": "CAATCTGAATTCCGGTCTCCC", "DNA 2": "TGGTGGCTACGACGGGATT"}, "B28": {"name": "ACUUGUC (DNA:RNA)", "RNA": "B1 RNA with G27U, A29G, G30U", "DNA 1": "CAATCTGAATTCCGGTCTCCC", "DNA 2": "TGGTGGCTACGACGGGATT"}, "B29": {"name": "AAGAAUA (DNA:RNA)", "RNA": "B1 RNA with C26A, U28A, G30U, C31A", "DNA 1": "CAATCTGAATTCCGGTCTCCC", "DNA 2": "TGGTGGCTACGACGGGATT"}, "B30": {"name": "AACGGCG (DNA:RNA)", "RNA": "B8 RNA with G25A, C28G, A30C, U31G", "DNA 1": "CAATCTGAATTCCGGTCTCCC", "DNA 2": "TGGTGGCTACGACGGGATT"}, "B31": {"name": "AGAGCUC (DNA:RNA)", "RNA": "B1 RNA with C26G, G27A, U28G, A29C, G30U", "DNA 1": "CAATCTGAATTCCGGTCTCCC", "DNA 2": "TGGTGGCTACGACGGGATT"}}, "note": "Substitutions are numbered along the chain they refer to; changes in the protein carry UniProt numbers. Some of the results follow.", "data": [{"molecular_target": "T1, RBFOX1 RRM (Homo sapiens, UniProt Q9NWB1 109-208)", "T1 sequence": "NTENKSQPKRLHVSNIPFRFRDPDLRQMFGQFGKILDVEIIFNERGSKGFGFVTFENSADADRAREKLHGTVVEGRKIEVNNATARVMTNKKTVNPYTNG", "test": "EMSA; HiTS-Eq, 1 nM pool, 10 min; buffer printed only for the single-RNA assays: 10 mM Tris pH 7.5, 150 mM NaCl, 3.4 mM EDTA, 0.001% NP-40, 30 C", "settings": "tags: His6 N-terminal (pET28a); label: 5' 32P", "in_short": "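Purified RbFox RRM, wild type or mutant, was incubated for 10 min in 50 µL with 1 nM of a 5′-radiolabelled RNA pool carrying 7 randomized nucleotides, whose flanks were annealed to DNA oligonucleotides, over a series of increasing protein concentrations. Unbound RNA was resolved on 8% native PAGE, cut out, reverse-transcribed, barcoded by PCR and sequenced on an Illumina HiSeq 2500. Relative association constants were derived from changes in read counts for each RNA species versus the control reaction and normalised to the cognate motif.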", "values": [{"binder": "B1", "binding signal": "0.00592 KA relative to UGCAUGU"}, {"binder": "B2", "binding signal": "0.019 KA relative to UGCAUGU"}, {"binder": "B3", "binding signal": "0.00387 KA relative to UGCAUGU"}, {"binder": "B4", "binding signal": "0.019 KA relative to UGCAUGU"}, {"binder": "B5", "binding signal": "0.000692 KA relative to UGCAUGU"}, {"binder": "B6", "binding signal": "0.0191 KA relative to UGCAUGU"}, {"binder": "B7", "binding signal": "0.006 KA relative to UGCAUGU"}, {"binder": "B8", "binding signal": "0.016 KA relative to UGCAUGU"}, {"binder": "B9", "binding signal": "0.0149 KA relative to UGCAUGU"}, {"binder": "B10", "binding signal": "0.00978 KA relative to UGCAUGU"}, {"binder": "B11", "binding signal": "0.0315 KA relative to UGCAUGU"}, {"binder": "B12", "binding signal": "0.00524 KA relative to UGCAUGU"}, {"binder": "B13", "binding signal": "0.00827 KA relative to UGCAUGU"}, {"binder": "B14", "binding signal": "0.0263 KA relative to UGCAUGU"}, {"binder": "B15", "binding signal": "0.0209 KA relative to UGCAUGU"}, {"binder": "B16", "binding signal": "0.0139 KA relative to UGCAUGU"}, {"binder": "B17", "binding signal": "0.0153 KA relative to UGCAUGU"}, {"binder": "B18", "binding signal": "0.00774 KA relative to UGCAUGU"}, {"binder": "B19", "binding signal": "0.00726 KA relative to UGCAUGU"}, {"binder": "B20", "binding signal": "0.0122 KA relative to UGCAUGU"}, {"binder": "B21", "binding signal": "0.013 KA relative to UGCAUGU"}, {"binder": "B22", "binding signal": "0.0255 KA relative to UGCAUGU"}, {"binder": "B23", "binding signal": "0.0198 KA relative to UGCAUGU"}, {"binder": "B24", "binding signal": "0.00462 KA relative to UGCAUGU"}, {"binder": "B25", "binding signal": "0.00843 KA relative to UGCAUGU"}, {"binder": "B26", "binding signal": "0.00767 KA relative to UGCAUGU"}, {"binder": "B27", "binding signal": "0.00732 KA relative to UGCAUGU"}, {"binder": "B28", "binding signal": "0.0105 KA relative to UGCAUGU"}, {"binder": "B29", "binding signal": "0.00282 KA relative to UGCAUGU"}, {"binder": "B30", "binding signal": "0.00907 KA relative to UGCAUGU"}, {"binder": "B31", "binding signal": "0.0113 KA relative to UGCAUGU"}]}]}
